Assay results reported in article PMC9911399, “Two distinct binding modes provide the RNA-binding protein RbFox with extraordinary sequence specificity”.
Where a chain is given by its changes, count along the chain named. Some of the results follow.

T1: RBFOX1 RRM RbFoxmut (Fox-RRM*) (Homo sapiens, UniProt Q9NWB1 109-208, R118D;E147R;N151S;E152T)
T1 sequence: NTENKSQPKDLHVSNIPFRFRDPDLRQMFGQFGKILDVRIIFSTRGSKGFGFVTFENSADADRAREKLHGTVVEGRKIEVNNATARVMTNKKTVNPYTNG

B1: AGCUCAA (DNA:RNA)
RNA: GGGAGACCGGAAUUCAGAUUGUCCAGCUCAAUUAAAUCCCGUCGUAGCCACCA
DNA 1: CAATCTGAATTCCGGTCTCCC
DNA 2: TGGTGGCTACGACGGGATT
B2: CCUGAGC (DNA:RNA)
RNA: GGGAGACCGGAAUUCAGAUUGUCCCCUGAGCUUAAAUCCCGUCGUAGCCACCA
DNA 1: CAATCTGAATTCCGGTCTCCC
DNA 2: TGGTGGCTACGACGGGATT
B3: CUUAUGG (DNA:RNA)
RNA: B2 RNA with C26U, G28A, A29U, C31G
DNA 1: CAATCTGAATTCCGGTCTCCC
DNA 2: TGGTGGCTACGACGGGATT
B4: GGUGCUC (DNA:RNA)
RNA: B2 RNA with C25G, C26G, A29C, G30U
DNA 1: CAATCTGAATTCCGGTCTCCC
DNA 2: TGGTGGCTACGACGGGATT
B5: CUGUGUU (DNA:RNA)
RNA: B1 RNA with A25C, G26U, C27G, C29G, A30U, A31U
DNA 1: CAATCTGAATTCCGGTCTCCC
DNA 2: TGGTGGCTACGACGGGATT
B6: CAGGGAC (DNA:RNA)
RNA: B2 RNA with C26A, U27G, A29G, G30A
DNA 1: CAATCTGAATTCCGGTCTCCC
DNA 2: TGGTGGCTACGACGGGATT
B7: CGCCAAC (DNA:RNA)
RNA: B1 RNA with A25C, U28C, C29A, A31C
DNA 1: CAATCTGAATTCCGGTCTCCC
DNA 2: TGGTGGCTACGACGGGATT
B8: UGUGAAG (DNA:RNA)
RNA: B2 RNA with C25U, C26G, G30A, C31G
DNA 1: CAATCTGAATTCCGGTCTCCC
DNA 2: TGGTGGCTACGACGGGATT
B9: CUGUUGA (DNA:RNA)
RNA: B1 RNA with A25C, G26U, C27G, C29U, A30G
DNA 1: CAATCTGAATTCCGGTCTCCC
DNA 2: TGGTGGCTACGACGGGATT
B10: GUACAGA (DNA:RNA)
RNA: B2 RNA with C25G, C26U, U27A, G28C, C31A
DNA 1: CAATCTGAATTCCGGTCTCCC
DNA 2: TGGTGGCTACGACGGGATT
B11: CUUUACG (DNA:RNA)
RNA: B2 RNA with C26U, G28U, G30C, C31G
DNA 1: CAATCTGAATTCCGGTCTCCC
DNA 2: TGGTGGCTACGACGGGATT
B12: UCCUCAC (DNA:RNA)
RNA: B1 RNA with A25U, G26C, A31C
DNA 1: CAATCTGAATTCCGGTCTCCC
DNA 2: TGGTGGCTACGACGGGATT
B13: UAGGGCC (DNA:RNA)
RNA: B2 RNA with C25U, C26A, U27G, A29G, G30C
DNA 1: CAATCTGAATTCCGGTCTCCC
DNA 2: TGGTGGCTACGACGGGATT
B14: GACAGUC (DNA:RNA)
RNA: B1 RNA with A25G, G26A, U28A, C29G, A30U, A31C
DNA 1: CAATCTGAATTCCGGTCTCCC
DNA 2: TGGTGGCTACGACGGGATT
B15: UCGCUAA (DNA:RNA)
RNA: B1 RNA with A25U, G26C, C27G, U28C, C29U
DNA 1: CAATCTGAATTCCGGTCTCCC
DNA 2: TGGTGGCTACGACGGGATT
B16: CGAUGUU (DNA:RNA)
RNA: B1 RNA with A25C, C27A, C29G, A30U, A31U
DNA 1: CAATCTGAATTCCGGTCTCCC
DNA 2: TGGTGGCTACGACGGGATT
B17: AGGAAGU (DNA:RNA)
RNA: B1 RNA with C27G, U28A, C29A, A30G, A31U
DNA 1: CAATCTGAATTCCGGTCTCCC
DNA 2: TGGTGGCTACGACGGGATT
B18: CGCUAGU (DNA:RNA)
RNA: B1 RNA with A25C, C29A, A30G, A31U
DNA 1: CAATCTGAATTCCGGTCTCCC
DNA 2: TGGTGGCTACGACGGGATT
B19: UCCCUCC (DNA:RNA)
RNA: B2 RNA with C25U, U27C, G28C, A29U, G30C
DNA 1: CAATCTGAATTCCGGTCTCCC
DNA 2: TGGTGGCTACGACGGGATT
B20: CGCGGCG (DNA:RNA)
RNA: B1 RNA with A25C, U28G, C29G, A30C, A31G
DNA 1: CAATCTGAATTCCGGTCTCCC
DNA 2: TGGTGGCTACGACGGGATT
B21: ACAAUAU (DNA:RNA)
RNA: B1 RNA with G26C, C27A, U28A, C29U, A31U
DNA 1: CAATCTGAATTCCGGTCTCCC
DNA 2: TGGTGGCTACGACGGGATT
B22: UGAUGCC (DNA:RNA)
RNA: B1 RNA with A25U, C27A, C29G, A30C, A31C
DNA 1: CAATCTGAATTCCGGTCTCCC
DNA 2: TGGTGGCTACGACGGGATT
B23: GUUCGAU (DNA:RNA)
RNA: B1 RNA with A25G, G26U, C27U, U28C, C29G, A31U
DNA 1: CAATCTGAATTCCGGTCTCCC
DNA 2: TGGTGGCTACGACGGGATT
B24: AGUAUGA (DNA:RNA)
RNA: B1 RNA with C27U, U28A, C29U, A30G
DNA 1: CAATCTGAATTCCGGTCTCCC
DNA 2: TGGTGGCTACGACGGGATT
B25: GUUUAAU (DNA:RNA)
RNA: B1 RNA with A25G, G26U, C27U, C29A, A31U
DNA 1: CAATCTGAATTCCGGTCTCCC
DNA 2: TGGTGGCTACGACGGGATT
B26: CGUCGGA (DNA:RNA)
RNA: B2 RNA with C26G, G28C, A29G, C31A
DNA 1: CAATCTGAATTCCGGTCTCCC
DNA 2: TGGTGGCTACGACGGGATT
B27: CGUCCUA (DNA:RNA)
RNA: B1 RNA with A25C, C27U, U28C, A30U
DNA 1: CAATCTGAATTCCGGTCTCCC
DNA 2: TGGTGGCTACGACGGGATT
B28: CAUCUGU (DNA:RNA)
RNA: B2 RNA with C26A, G28C, A29U, C31U
DNA 1: CAATCTGAATTCCGGTCTCCC
DNA 2: TGGTGGCTACGACGGGATT
B29: AUGCGGU (DNA:RNA)
RNA: B1 RNA with G26U, C27G, U28C, C29G, A30G, A31U
DNA 1: CAATCTGAATTCCGGTCTCCC
DNA 2: TGGTGGCTACGACGGGATT
B30: UUACACA (DNA:RNA)
RNA: B1 RNA with A25U, G26U, C27A, U28C, C29A, A30C
DNA 1: CAATCTGAATTCCGGTCTCCC
DNA 2: TGGTGGCTACGACGGGATT
B31: GAUCGAU (DNA:RNA)
RNA: B1 RNA with A25G, G26A, C27U, U28C, C29G, A31U
DNA 1: CAATCTGAATTCCGGTCTCCC
DNA 2: TGGTGGCTACGACGGGATT

The binders below were run against T1, RBFOX1 RRM RbFoxmut (Fox-RRM*) (assay: EMSA; HiTS-Eq, 1 nM pool, 10 min; buffer printed only for the single-RNA assays: 10 mM Tris pH 7.5, 150 mM NaCl, 3.4 mM EDTA, 0.001% NP-40, 30 C). Settings: tags: His6 N-terminal (pET28a); label: 5' 32P.
In short: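 Purified wild-type or mutant RbFox RRM at increasing concentrations was equilibrated with 1 nM of 5′-radiolabelled RNA carrying 7 randomized nucleotides for 10 min in 50 µL. Unbound RNA was separated by 8% native PAGE and sequenced. Relative association constants came from read-count changes of each RNA species compared with the control reaction, normalised to the cognate motif.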
With B1 the binding signal was 0.0673 KA relative to UGCAUGU. With B2 the binding signal was 0.0942 KA relative to UGCAUGU. With B3 the binding signal was 0.0899 KA relative to UGCAUGU. B4 was tested, and the binding signal was 0.0985 KA relative to UGCAUGU. For B5, the binding signal was 0.14 KA relative to UGCAUGU. For B6, the binding signal was 0.0782 KA relative to UGCAUGU. For B7, the binding signal was 0.0503 KA relative to UGCAUGU. For B8, the binding signal was 0.138 KA relative to UGCAUGU. In the case of B9, the binding signal is reported as 0.104 KA relative to UGCAUGU. In the case of B10, the binding signal is reported as 0.0876 KA relative to UGCAUGU. For B11, the binding signal was 0.123 KA relative to UGCAUGU. With B12 the binding signal was 0.114 KA relative to UGCAUGU. For B13, the binding signal was 0.128 KA relative to UGCAUGU. With B14 the binding signal was 0.0521 KA relative to UGCAUGU. For B15, the binding signal was 0.106 KA relative to UGCAUGU. B16 was tested, and the binding signal was 0.119 KA relative to UGCAUGU. B17 was tested, and the binding signal was 0.118 KA relative to UGCAUGU. In the case of B18, the binding signal is reported as 0.144 KA relative to UGCAUGU. B19 was tested, and the binding signal was 0.0896 KA relative to UGCAUGU. B20 was tested, and the binding signal was 0.134 KA relative to UGCAUGU. With B21 the binding signal was 0.102 KA relative to UGCAUGU. For B22, the binding signal was 0.191 KA relative to UGCAUGU. For B23, the binding signal was 0.0982 KA relative to UGCAUGU. B24 was tested, and the binding signal was 0.189 KA relative to UGCAUGU. B25 was tested, and the binding signal was 0.126 KA relative to UGCAUGU. In the case of B26, the binding signal is reported as 0.0839 KA relative to UGCAUGU. B27 was tested, and the binding signal was 0.0918 KA relative to UGCAUGU. With B28 the binding signal was 0.0783 KA relative to UGCAUGU. In the case of B29, the binding signal is reported as 0.126 KA relative to UGCAUGU. In the case of B30, the binding signal is reported as 0.0868 KA relative to UGCAUGU. For B31, the binding signal was 0.0971 KA relative to UGCAUGU.
